Results as given in publication PMC8408442.
These are yes or no findings as the source states them, for the method shown. For part of these data: In cells and extracts the contact can be indirect. Some entries that bind do so weakly or less than the wild type. Where a sequence is shown, tags or fusion partners need not be part of it.

T1: BBX19 (yeast two-hybrid fusion) (Arabidopsis thaliana) (UniProt C0SVM5)
T1 sequence: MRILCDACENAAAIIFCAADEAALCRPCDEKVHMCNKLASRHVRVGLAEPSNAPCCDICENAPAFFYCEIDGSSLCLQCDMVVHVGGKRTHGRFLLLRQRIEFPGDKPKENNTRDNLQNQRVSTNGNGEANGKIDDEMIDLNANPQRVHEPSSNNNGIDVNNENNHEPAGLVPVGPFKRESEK

T2: BBX18 (yeast two-hybrid fusion) (Arabidopsis thaliana) (UniProt Q9SJU5)
T2 sequence: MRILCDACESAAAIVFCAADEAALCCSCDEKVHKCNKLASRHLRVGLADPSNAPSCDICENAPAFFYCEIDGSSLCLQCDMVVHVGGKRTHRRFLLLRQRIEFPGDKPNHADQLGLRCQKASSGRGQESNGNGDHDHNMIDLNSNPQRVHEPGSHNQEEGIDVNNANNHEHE

T3: BBX19 with GFP (pCsVMV:GFP-1300 construct, co-immunoprecipitation) (Arabidopsis thaliana) (UniProt C0SVM5)
T3 sequence: T1 sequence

T4: BBX18 with GFP (pCsVMV:GFP-1300 construct, co-immunoprecipitation) (Arabidopsis thaliana) (UniProt Q9SJU5)
T4 sequence: T2 sequence

T5: BBX19 fused to nLUC or cLUC (luciferase complementation) (Arabidopsis thaliana) (UniProt C0SVM5)
T5 sequence: T1 sequence

T6: BBX18 fused to nLUC or cLUC (luciferase complementation) (Arabidopsis thaliana) (UniProt Q9SJU5)
T6 sequence: T2 sequence

B1: PRR9 (yeast two-hybrid fusion) (protein, UniProt Q8L500 1-468)
chain: MGEIVVLSSDDGMETIKNRVKSSEVVQWEKYLPKTVLRVLLVESDYSTRQIITALLRKCCYKVVAVSDGLAAWEVLKEKSHNIDLILTELDLPSISGFALLALVMEHEACKNIPVIMMSSQDSIKMVLKCMLRGAADYLIKPMRKNELKNLWQHVWRRLTLRDDPTAHAQSLPASQHNLEDTDETCEDSRYHSDQGSGAQAINYNGHNKLMENGKSVDERDEFKETFDVTMDLIGGIDKRPDSIYKDKSRDECVGPELGLSLKRSCSVSFENQDESKHQKLSLSDASAFSRFEESKSAEKAVVALEESTSGEPKTPTESHEKLRKVTSDQGSATTSSNQENIGSSSVSFRNQVLQSTVTNQKQDSPIPVESNREKAASKEVEAGSQSTNEGIAGQSSSTEKPKEEESAKQRWSRSQREAALMKFRLKRKDRCFDKKVRYQSRKKLAEQRPRVKGQFVRTVNSDASTKS
B2: PRR9-HA (pCsVMV:PRRs-HA-1300 construct, co-immunoprecipitation) (protein, UniProt Q8L500 1-468)
chain: B1 chain
B3: BBX19 fused to nLUC or cLUC (luciferase complementation) (protein, UniProt C0SVM5 1-183)
chain: T1 sequence
B4: BBX18 fused to nLUC or cLUC (luciferase complementation) (protein, UniProt Q9SJU5 1-172)
chain: T2 sequence
B5: PRR9-nLUC (protein, UniProt Q8L500 1-468)
chain: B1 chain
B6: PRR9-delEAR-nLUC (protein, UniProt Q8L500)
chain: MGEIVVLSSDDGMETIKNRVKSSEVVQWEKYLPKTVLRVLLVESDYSTRQIITALLRKCCYKVVAVSDGLAAWEVLKEKSHNIDLILTELDLPSISGFALLALVMEHEACKNIPVIMMSSQDSIKMVLKCMLRGAADYLIKPMRKNELKNLWQHVWRRLTLRDDPTAHAQSLPASQHNLEDTDETCEDSRYHSDQGSGAQAINYNGHNKLMENGKSVDERDEFKETFDVTMDLIGGIDKRPDSIYKDKSFENQDESKHQKLSLSDASAFSRFEESKSAEKAVVALEESTSGEPKTPTESHEKLRKVTSDQGSATTSSNQENIGSSSVSFRNQVLQSTVTNQKQDSPIPVESNREKAASKEVEAGSQSTNEGIAGQSSSTEKPKEEESAKQRWSRSQREAALMKFRLKRKDRCFDKKVRYQSRKKLAEQRPRVKGQFVRTVNSDASTKS
B7: BBX19 (yeast two-hybrid fusion) (protein, UniProt C0SVM5 1-183)
chain: T1 sequence
B8: BBX18 (yeast two-hybrid fusion) (protein, UniProt Q9SJU5 1-172)
chain: T2 sequence
B9: LHY (yeast two-hybrid fusion) (protein, UniProt Q6R0H1 1-645)
chain: MDTNTSGEELLAKARKPYTITKQRERWTEDEHERFLEALRLYGRAWQRIEEHIGTKTAVQIRSHAQKFFTKLEKEAEVKGIPVCQALDIEIPPPRPKRKPNTPYPRKPGNNGTSSSQVSSAKDAKLVSSASSSQLNQAFLDLEKMPFSEKTSTGKENQDENCSGVSTVNKYPLPTKQVSGDIETSKTSTVDNAVQDVPKKNKDKDGNDGTTVHSMQNYPWHFHADIVNGNIAKCPQNHPSGMVSQDFMFHPMREETHGHANLQATTASATTTASHQAFPACHSQDDYRSFLQISSTFSNLIMSTLLQNPAAHAAATFAASVWPYASVGNSGDSSTPMSSSPPSITAIAAATVAAATAWWASHGLLPVCAPAPITCVPFSTVAVPTPAMTEMDTVENTQPFEKQNTALQDQNLASKSPASSSDDSDETGVTKLNADSKTNDDKIEEVVVTAAVHDSNTAQKKNLVDRSSCGSNTPSGSDAETDALDKMEKDKEDVKETDENQPDVIELNNRKIKMRDNNSNNNATTDSWKEVSEEGRIAFQALFARERLPQSFSPPQVAENVNRKQSDTSMPLAPNFKSQDSCAADQEGVVMIGVGTCKSLKTRQTGFKPYKRCSMEVKESQVGNINNQSDEKVCKRLRLEGEAST
B10: LUX (yeast two-hybrid fusion) (protein, UniProt Q9SNB4 1-323)
chain: MGEEVQMSDYDVSGDGDRVSEWEMGLPSDEDLASLSYSLIPPNLAMAFSITPERSRTIQDVNRASETTLSSLRGGSSGPNTSSSNNNVEEEDRVGSSSPGSDSKKQKTSNGDGDDGGGVDPDSAMAAEEGDSGTEDLSGKTLKRPRLVWTPQLHKRFVDVVAHLGIKNAVPKTIMQLMNVEGLTRENVASHLQKYRLYLKRMQGLTNEGPSASDKLFSSTPVPPQSFQDIGGGGGSSGNVGVPIPGAYGTQQMMQMPVYAHHMGMQGYHHQNHNHDPYHQNHRHHHGAGGNGAFESNPYMMQQNKFGSMASYPSVGGGSANEN
B11: PRR9-delPR-nLUC (protein, UniProt Q8L500)
chain: MGEIVVLSSDDGMETIKNRVKSSEVVQWEKYLPKTVLRRLTLRDDPTAHAQSLPASQHNLEDTDETCEDSRYHSDQGSGAQAINYNGHNKLMENGKSVDERDEFKETFDVTMDLIGGIDKRPDSIYKDKSRDECVGPELGLSLKRSCSVSFENQDESKHQKLSLSDASAFSRFEESKSAEKAVVALEESTSGEPKTPTESHEKLRKVTSDQGSATTSSNQENIGSSSVSFRNQVLQSTVTNQKQDSPIPVESNREKAASKEVEAGSQSTNEGIAGQSSSTEKPKEEESAKQRWSRSQREAALMKFRLKRKDRCFDKKVRYQSRKKLAEQRPRVKGQFVRTVNSDASTKS

Tests used:
[1] = molecular target: T1, BBX19 (yeast two-hybrid fusion) (Arabidopsis thaliana); test: two-hybrid; yeast two-hybrid; AD (activating domain) and BD (binding domain) fusions; -LW and selective -LWHA medium
[2] = molecular target: T2, BBX18 (yeast two-hybrid fusion) (Arabidopsis thaliana); test: as above
[3] = molecular target: T3, BBX19 with GFP (pCsVMV:GFP-1300 construct, co-immunoprecipitation) (Arabidopsis thaliana); test: co-IP; protein extracts of co-infiltrated N. benthamiana leaves, 3 days after infiltration; GFP-Trap magnetic beads, about 1 h at 4°C, washed four times; immunoblot with anti-HA and anti-FLAG
[4] = molecular target: T4, BBX18 with GFP (pCsVMV:GFP-1300 construct, co-immunoprecipitation) (Arabidopsis thaliana); test: as above
[5] = molecular target: T5, BBX19 fused to nLUC or cLUC (luciferase complementation) (Arabidopsis thaliana); test: split reporter; luciferase complementation (nLUC and cLUC fusions) in transgenic Arabidopsis plants, fusion proteins driven by their own promoters; recombined LUC activity monitored for 72 h with a TopCount luminometer under 12-h:12-h LD and LL
[6] = molecular target: T6, BBX18 fused to nLUC or cLUC (luciferase complementation) (Arabidopsis thaliana); test: as above

Binder	binding [1]	binding [2]	binding [5]	also measured
B1	binds	binds	–	–
B2	–	–	–	binding [3]: binds; binding [4]: binds
B3	–	–	binds	–
B4	–	–	binds	binding [6]: binds
B5	–	–	binds	binding [6]: binds
B6	–	–	binds	–
B7	binds	–	–	–
B8	binds	binds	–	–
B9	no binding	no binding	–	–
B10	no binding	no binding	–	–
B11	–	–	no binding	–
